Numbering of substitutions follows the chain as printed; changes in the protein carry UniProt numbers. Some of the results follow.

First the molecules themselves.
T1: RBFOX1 RRM RbFoxmut (Fox-RRM*) (Homo sapiens, UniProt Q9NWB1 109-208, R118D;E147R;N151S;E152T)
T1 sequence: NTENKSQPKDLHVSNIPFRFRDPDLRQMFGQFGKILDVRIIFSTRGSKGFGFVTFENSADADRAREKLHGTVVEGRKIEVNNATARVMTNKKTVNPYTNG

B1: CCGUUUC (DNA:RNA)
RNA: GGGAGACCGGAAUUCAGAUUGUCCCCGUUUCUUAAAUCCCGUCGUAGCCACCA
DNA 1: CAATCTGAATTCCGGTCTCCC
DNA 2: TGGTGGCTACGACGGGATT
B2: GAAUCGU (DNA:RNA)
RNA: B1 RNA with C25G, C26A, G27A, U29C, U30G, C31U
DNA 1: CAATCTGAATTCCGGTCTCCC
DNA 2: TGGTGGCTACGACGGGATT
B3: UGAUCCA (DNA:RNA)
RNA: B1 RNA with C25U, C26G, G27A, U29C, U30C, C31A
DNA 1: CAATCTGAATTCCGGTCTCCC
DNA 2: TGGTGGCTACGACGGGATT
B4: CCCAUCC (DNA:RNA)
RNA: B1 RNA with G27C, U28A, U30C
DNA 1: CAATCTGAATTCCGGTCTCCC
DNA 2: TGGTGGCTACGACGGGATT
B5: CAUAUAU (DNA:RNA)
RNA: B1 RNA with C26A, G27U, U28A, U30A, C31U
DNA 1: CAATCTGAATTCCGGTCTCCC
DNA 2: TGGTGGCTACGACGGGATT
B6: GGUAACA (DNA:RNA)
RNA: GGGAGACCGGAAUUCAGAUUGUCCGGUAACAUUAAAUCCCGUCGUAGCCACCA
DNA 1: CAATCTGAATTCCGGTCTCCC
DNA 2: TGGTGGCTACGACGGGATT
B7: CCCUUUC (DNA:RNA)
RNA: B1 RNA with G27C
DNA 1: CAATCTGAATTCCGGTCTCCC
DNA 2: TGGTGGCTACGACGGGATT
B8: ACUGAAG (DNA:RNA)
RNA: B6 RNA with G25A, G26C, A28G, C30A, A31G
DNA 1: CAATCTGAATTCCGGTCTCCC
DNA 2: TGGTGGCTACGACGGGATT
B9: AUUAGGU (DNA:RNA)
RNA: B6 RNA with G25A, G26U, A29G, C30G, A31U
DNA 1: CAATCTGAATTCCGGTCTCCC
DNA 2: TGGTGGCTACGACGGGATT
B10: UUAGCUG (DNA:RNA)
RNA: B1 RNA with C25U, C26U, G27A, U28G, U29C, C31G
DNA 1: CAATCTGAATTCCGGTCTCCC
DNA 2: TGGTGGCTACGACGGGATT
B11: CGGCGCU (DNA:RNA)
RNA: B1 RNA with C26G, U28C, U29G, U30C, C31U
DNA 1: CAATCTGAATTCCGGTCTCCC
DNA 2: TGGTGGCTACGACGGGATT
B12: CAGUAAU (DNA:RNA)
RNA: B1 RNA with C26A, U29A, U30A, C31U
DNA 1: CAATCTGAATTCCGGTCTCCC
DNA 2: TGGTGGCTACGACGGGATT
B13: CUUGUAA (DNA:RNA)
RNA: B1 RNA with C26U, G27U, U28G, U30A, C31A
DNA 1: CAATCTGAATTCCGGTCTCCC
DNA 2: TGGTGGCTACGACGGGATT
B14: UAUAUAU (DNA:RNA)
RNA: B6 RNA with G25U, G26A, A29U, C30A, A31U
DNA 1: CAATCTGAATTCCGGTCTCCC
DNA 2: TGGTGGCTACGACGGGATT
B15: CACUAUG (DNA:RNA)
RNA: B1 RNA with C26A, G27C, U29A, C31G
DNA 1: CAATCTGAATTCCGGTCTCCC
DNA 2: TGGTGGCTACGACGGGATT
B16: GGUUAGG (DNA:RNA)
RNA: B6 RNA with A28U, C30G, A31G
DNA 1: CAATCTGAATTCCGGTCTCCC
DNA 2: TGGTGGCTACGACGGGATT
B17: UCUCCGA (DNA:RNA)
RNA: B6 RNA with G25U, G26C, A28C, A29C, C30G
DNA 1: CAATCTGAATTCCGGTCTCCC
DNA 2: TGGTGGCTACGACGGGATT
B18: UUAGCUA (DNA:RNA)
RNA: B1 RNA with C25U, C26U, G27A, U28G, U29C, C31A
DNA 1: CAATCTGAATTCCGGTCTCCC
DNA 2: TGGTGGCTACGACGGGATT
B19: GCAUGUG (DNA:RNA)
RNA: B1 RNA with C25G, G27A, U29G, C31G
DNA 1: CAATCTGAATTCCGGTCTCCC
DNA 2: TGGTGGCTACGACGGGATT
B20: CCACUGC (DNA:RNA)
RNA: B1 RNA with G27A, U28C, U30G
DNA 1: CAATCTGAATTCCGGTCTCCC
DNA 2: TGGTGGCTACGACGGGATT
B21: ACCCGGG (DNA:RNA)
RNA: B1 RNA with C25A, G27C, U28C, U29G, U30G, C31G
DNA 1: CAATCTGAATTCCGGTCTCCC
DNA 2: TGGTGGCTACGACGGGATT
B22: UUAAAUG (DNA:RNA)
RNA: B6 RNA with G25U, G26U, U27A, C30U, A31G
DNA 1: CAATCTGAATTCCGGTCTCCC
DNA 2: TGGTGGCTACGACGGGATT
B23: ACUCGGG (DNA:RNA)
RNA: B1 RNA with C25A, G27U, U28C, U29G, U30G, C31G
DNA 1: CAATCTGAATTCCGGTCTCCC
DNA 2: TGGTGGCTACGACGGGATT
B24: GUUACUG (DNA:RNA)
RNA: B6 RNA with G26U, A29C, C30U, A31G
DNA 1: CAATCTGAATTCCGGTCTCCC
DNA 2: TGGTGGCTACGACGGGATT
B25: AGUUAUC (DNA:RNA)
RNA: B1 RNA with C25A, C26G, G27U, U29A
DNA 1: CAATCTGAATTCCGGTCTCCC
DNA 2: TGGTGGCTACGACGGGATT
B26: GGAUUAG (DNA:RNA)
RNA: B1 RNA with C25G, C26G, G27A, U30A, C31G
DNA 1: CAATCTGAATTCCGGTCTCCC
DNA 2: TGGTGGCTACGACGGGATT
B27: CACAUUU (DNA:RNA)
RNA: B1 RNA with C26A, G27C, U28A, C31U
DNA 1: CAATCTGAATTCCGGTCTCCC
DNA 2: TGGTGGCTACGACGGGATT
B28: CAAAGAC (DNA:RNA)
RNA: B1 RNA with C26A, G27A, U28A, U29G, U30A
DNA 1: CAATCTGAATTCCGGTCTCCC
DNA 2: TGGTGGCTACGACGGGATT
B29: GUCGGUA (DNA:RNA)
RNA: B6 RNA with G26U, U27C, A28G, A29G, C30U
DNA 1: CAATCTGAATTCCGGTCTCCC
DNA 2: TGGTGGCTACGACGGGATT
B30: CCACGUA (DNA:RNA)
RNA: B1 RNA with G27A, U28C, U29G, C31A
DNA 1: CAATCTGAATTCCGGTCTCCC
DNA 2: TGGTGGCTACGACGGGATT
B31: UCCUCUA (DNA:RNA)
RNA: B1 RNA with C25U, G27C, U29C, C31A
DNA 1: CAATCTGAATTCCGGTCTCCC
DNA 2: TGGTGGCTACGACGGGATT

For the assay, the target named is T1, RBFOX1 RRM RbFoxmut (Fox-RRM*). Briefly: EMSA; HiTS-Eq, 1 nM pool, 10 min; buffer printed only for the single-RNA assays: 10 mM Tris pH 7.5, 150 mM NaCl, 3.4 mM EDTA, 0.001% NP-40, 30 C. Particulars: tags: His6 N-terminal (pET28a); label: 5' 32P. The procedure, abridged: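 Purified RbFox RRM (wild type or mutant) was equilibrated for 10 min in 50 µL with 1 nM of a 5′-radiolabelled pool of RNA with 7 randomized nucleotides, its flanks annealed to DNA oligonucleotides, across increasing protein concentrations. Free RNA was separated by 8% native PAGE, excised, reverse-transcribed, PCR-barcoded and sequenced on an Illumina HiSeq 2500. Relative association constants came from read-count changes of each variant against the control reaction, normalised to the cognate motif.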
A general note: In EMSA bound probe runs differently from free probe, usually more slowly.
Take B1: the binding signal was 0.118 KA relative to UGCAUGU.
The same measure for B2: 0.576 KA relative to UGCAUGU.
The same measure for B3: 0.0765 KA relative to UGCAUGU; for B4: 0.0681 KA relative to UGCAUGU; for B5: 0.114 KA relative to UGCAUGU.
The same measure for B6: 0.0743 KA relative to UGCAUGU; for B7: 0.0564 KA relative to UGCAUGU.
For the molecule B8, the binding signal was 0.099 KA relative to UGCAUGU.
The same measure for B9: 0.0926 KA relative to UGCAUGU.
For B10, the binding signal is 0.12 KA relative to UGCAUGU.
The same measure for B11: 0.0775 KA relative to UGCAUGU; for B12: 0.0996 KA relative to UGCAUGU.
Consider B13, for which the binding signal was 0.159 KA relative to UGCAUGU.
The same measure for B14: 0.0852 KA relative to UGCAUGU; for B15: 0.119 KA relative to UGCAUGU; for B16: 0.08 KA relative to UGCAUGU.
The same measure for B17: 0.0673 KA relative to UGCAUGU; for B18: 0.124 KA relative to UGCAUGU.
The same measure for B19: 0.954 KA relative to UGCAUGU; for B20: 0.0998 KA relative to UGCAUGU.
Regarding B21, the binding signal is 0.0835 KA relative to UGCAUGU.
The same measure for B22: 0.0888 KA relative to UGCAUGU; for B23: 0.0886 KA relative to UGCAUGU; for B24: 0.132 KA relative to UGCAUGU.
On to B25, for which the binding signal was 0.115 KA relative to UGCAUGU.
Turning to B26, the binding signal is 0.108 KA relative to UGCAUGU.
The same measure for B27: 0.0891 KA relative to UGCAUGU; for B28: 0.0623 KA relative to UGCAUGU.
B29: the binding signal was 0.2 KA relative to UGCAUGU.
For B30, the binding signal is 0.142 KA relative to UGCAUGU.
The same measure for B31: 0.0903 KA relative to UGCAUGU.

(Values after article PMC9911399, “Two distinct binding modes provide the RNA-binding protein RbFox with extraordinary sequence specificity”.)
